In the RNAGym collection of RNA variant scans (doi:10.7554/elife.90254) one finds self-cleavage data, which are given here for 21 variants.

The labels stand for the following.
B1: OR4K15 (parent)
chain: GUUAACGGUCAUAGGCCAUGGAAACUAGGAGCACCAUUUCGCUGCCAGUGAAGAAAUGAACAAAGAAAAUCUGGGCCAGGCAGGCAUCAAAAGAAAUAGUCUUGCGCUCAACCAGAAAGUCUGUAAUCAUUUUAAGGGUA

Read counts are not given, so values of variants with three or more changes are uncertain.

The data set covers variants of B1. As to the kind of experiment: self-cleavage, relative activity (ratio to wild type); higher = more cleavage; in vitro, sequencing; the parent is a self-cleaving ribozyme.
For the variant GUUAACGGUCAUAGGCCUUGGAAACUAGGAGCACCAUUUCGCUGCCAGUGAAGAAAUGAACAAAGAAAAUCUGGGCCAGGCAGGCAUCAAAAGAAAUAGUCUUGCGCUCAACCAGAGAGUCUGUAAUCAUUUCAAGGGUA [A18U A117G U133C], the self-cleavage worked out at 1.35. To GUUAACGGUCAUAGGCCUUGGAAACUAGGAGCACCAUUUCGCUGCCAGUGAAGAAAUGAACACAGAAAAUCUGGGCCAGGCAGGCAUCAAAAGAAAUAGUCUUGCGCUCAACCAGAAAGUCUGUAAUCAUCUUAAGGGUA [A18U A63C U131C] belongs 1.92; to GUUAACGGUCAUAGGCCUUGGAAACUAGGAGCACCAUUUCGCUGCCAGUGAAGAAACGAACAAAGAAAAUCUGGGCCAGGCAGGCAUCAAAAGAAAUAGUCUUGCGCUCAACCAGAAAGUCUGUAGUCAUUUUAAGGGUA [A18U U57C A126G], 0.38. The figure for GUUAACGGUCAUAGGCCUUGGAAACUAGGAGCACCAUUUCGCUGCCAGUGAAGAAAUGAACAAAGAGAAUCUGGGCCAGGCAGGCAUCAAAAGUAAUAGUCUUGCGCUCAACCAGAAAGUCUGUAAUCAUUUUAAGGGUA [A18U A67G A94U] is 1.64; for GUUAACGGUCAUAGGCCUUGGAAACUAGGAGCACCAUUUCGCUGCCAGUGAAGAAAUGAACAAAGAAAAUCUGGGCCAGGCAGGCAUCAGAAGAAAUAGUCUUGCGCCCAACCAGAAAGUCUGUAAUCAUUUUAAGGGUA [A18U A90G U108C] it is 0.01; for GUUAACGGUCAUAGGCCUUGGAAACUAGGAGCACCAUUUCGCUGCCAGUGAAGAAAUGAACAAAGAAAAUCUGGGCCAGGCAGGCAUCAAAAGAAGUAGUCUUGCUCUCAACCAGAGAGUCUGUAAUCAUUUUAAGGGUA [A18U A96G G106U A117G] it is 0.01. The figure for GUUAACGGUCAUAGGCCUUGGAAACUAGGAGCACCAUUUCGCCGCCUGCGAAGAAAUGAACAAGGAAAAUCCGGGCCAGGCAGGCAUCAAAAGAAAUAGUCUUGCGCUCAACCAGAAAGUCUGUAGUCAUUUUAAGGGUA [A18U U43C A47U U49C A64G U72C A126G] is 0.1. For the variant GUUAACGGUCAUAGGCCUUGGAAACUAGGAGCACCAUUUCGCCGCCAGUGUAGAGAUGAACGAAGAAAAUCUGGGCCAGGCAGGCAUCAAAAGAAAUAGUCUUGCGCUCAACCAGAAAGUCUGUAAUCAUUUUAAGGGUA [A18U U43C A51U A55G A62G], the self-cleavage was 1.2.

GUUAACGGUCAUAGGCCUUGGAAACUAGGAGCACCAUUUCGCUGCCAGUGAAGAAAAGAACAAAGAGAAUCUGGGCCGGGCAGGCAUCAAAAGAAAUAGUCCUGCGCUCAACCAGAAAGUCUGUAAUCAUUUUAAGGGUA [A18U U57A A67G A78G U102C]: the self-cleavage came out at 0.26.

With GUUAACGGUCAUAGGCCUUGGAAACUAGGAGCACCACUUCGCUGCCAGUGAAGAAGUGAACAAAGAAAAUCUGGGCCAGGCAGGCAUCAAAAGAAAUAGUCUUGCGCUCAACCAGAAAGUCUGUAAUCAUUUUAAGGGUA [A18U U37C A56G], the self-cleavage is 1.46. GUUAACGGUCAUAGGCCUUGGAAACCAGGAGCACCAUUUCGCUGCCAGUGAAGAAAUGGACAAAGAAAAUCUAGGCCAGGCAGGCAUCAAAAGAAAUAGUCUUGCGCUCUACCAGAAAGCCUGUAAUCAUUUUAAGGGUA [A18U U26C A59G G73A A110U U120C]: the self-cleavage turned out to be 0.06. Consider GUUAACGGUCAUAGGCCUUGGAAACUAGGAGCACCAUCUCGCUGCCAGUGAAGAAAUGAACAAAGAAAAUCAGGGCCAGGCAGGCAUCAAAAGAAAUAGUCUUGCGCUCAACCAGAAAGUCUGUAAUCAUUUUAAGGGUA [A18U U38C U72A], for which the self-cleavage turned out to be 0.16. The figure for GUUAACGGUCAUAGGCCUUGGAAACUAGGAGCACCAUUUCGCUGCCAGUGAAGAAAUGAACAAAGAAAAUCUGGGCCAGGCAGGCAUCAAAAGAAGUAGUCUUGCGCUCAACCAGAAGGUCUGUAAUCAUUUUAAGGGUA [A18U A96G A118G] is 1.59; for GUUAACGGUCAUAGGCCUUGGAAACUAGGAGCACCAUCUCGCUGCCAGUGAAGAGAUGAUCAAAGAAAAUCUGGGCCAGGCAGGCAUCAAAAGAAAUAGUCUUGCGCUCAACCAGAAAGUCUGUAAUCAUUUUAAGGGUA [A18U U38C A55G A60U] it is 1.61. Take GUUAACGGUCAUAGGCCUAGGAAACUAGGAGCACCAUUUCGCUGCCAGUGAAAAAAUGAACAAAGAAAAUCUGGGCCAGGCAGGCAUCAAAAGAAAUAGUCUUGCGCUCAACCAGAAAGUCUGUAAUCAUUUUAAGGGUA [A18U U19A G53A]: the self-cleavage amounted to 1.22. Regarding GUUAACGGUCAUAGGCCUUGGAAACUAGGAGCACCAUUUCGCUGCCAGAGAAGAAAUGAACAAAGAAAAUCGGGGCCAGGCAGGCAUCAAAAGGAAUAGUCUUGCGCUCAACCAGAAAGUCUGUAAUCAUUUUAAGGGUA [A18U U49A U72G A94G], the self-cleavage is 0.12. To GUUAACGGUCAUAGGCCUUGGAAACUAGGAGCACCAUGUCGCUGCCAGUGAAGAAACGAACAAAGAAAAUCUGGGCCAGGCAGGCAACAAAAGAAAUAGUCUUGCGCUCAACCAGAAAGUCUGUAAUCAUUUUAAGGGUA [A18U U38G U57C U87A] belongs 1.14. To GUUAACGGUCAUAGGCCUUGGAAACUAGGAGCACCAUUUCGCUGCCAGCGAAGAAAUGAACAAAGAAAAUCUGGGCCAGGCAGGCAUCAAAAGAAAUAGUCUUGCGCCCAACCAGAAAGUCUGUAAUCAUUUUAAGGGUA [A18U U49C U108C] belongs 0.01. The figure for GUUAACGGUCAUAGGCCUUGGAAACUAGGAGCACCAUUUCGCUGCCAGUGAAGAAAUGAACAAAGAAAAUCUGGGCCAGGCAGGCAUCAAAAGAAAUAGUCUUGCGCUCAACCUGAAAGCCUGUAAUCAUUUUAAGGGUA [A18U A114U U120C] is 0.01; for GUUAACGGUCAUAGGCCUUGGAAACUAGGAGCACCAUUUCGCUGCCAGUGAAGAAAUGAACAGAGAAAAUCUGGGCCAGGCAGGCAUCAAAAGAAAUAGUCUUGCGCUCAACCAGAAAGUCUAUAAUCAUUUUAAGGGUA [A18U A63G G123A] it is 1.25; for GUUAACGGUCAUAGGCCUUGGAAACUAGGAGCACCAUUUCGCUGCCAGUGAAGAAAUGAACAAAGAAAAUCUGUGCCAGGCAGGCAUCAAAGGAAAUAGUCUUGCGCGCAACCAGAGAGUCUGUAAUCAUUUUAAGGGUA [A18U G74U A92G U108G A117G] it is 0.03.
